# Data from patent publication US20230227576A1 (published 2023).
# Columns and labels:
# [1] = molecular target: carcinoembryonic antigen (CEA) (Homo sapiens (Human), UniProt P06731); test: cell-based or functional assay
# [2] = molecular target: Human folate receptor alpha (FolR) (human, UniProt P15328); test: cell-based or functional assay
IL-2 secretion (ELISA) [1],mean fold expansion over 21 days [2],fold expansion over 2 rounds of stimulation [1],Binder,viable T-cell counts over 18 days [1]
5 ng/mL,,,MFE23.CD28 CoStAR (MFE23.scFv fused to full length human CD28) (CAR) QVKLQQSGAELVRSGTSVKLSCTASGFNIKDSYMHWLRQGPEQGLEWIGWIDPENGDTEYAPKFQGKATFTTDTSSNTAYLQLSSLTSEDTAVYYCNEGTPTGPYYFDYWGQGTTVTVSSGGGGSGGGGSGGGGSENVLTQSPAIMSASPGEKVTITCSASSSVSYMHWFQQKPGTSPKLWIYSTSNLASGVPARFSGSGSGTSYSLTISRMEAEDAATYYCQQRSSYPLTFGAGTKLELKR[about 150 residues not shown]FWVLVVVGGVLACYSLLVTVAFIIFWVRSKRSRLLHSDYMNMTPRRPGPTRKHYQPYAPPRDFAAYRS,
,1300 fold,,MOV19.CD28.CD40 CoStAR (CTP205; OSM_MOV19_spCD28_CD28_CD40) (CAR) QVQLQQSGAELVKPGASVKISCKASGYSFTGYFMNWVKQSHGKSLEWIGRIHPYDGDTFYNQNFKDKATLTVDKSSNTAHMELLSLTSEDFAVYYCTRYDGSRAMDYWGQGTTVTVSSGGGGSGGGGSGGGGSDIELTQSPASLAVSLGQRAIISCKASQSVSFAGTSLMHWYHQKPGQQPKLLIYRASNLEAGVPTRFSGSGSKTDFTLNIHPVEEEDAATYYCQQSREYPYTFGGGTKLEIKAAAGSGG[about 150 residues not shown]FWVLVVVGGVLACYSLLVTVAFIIFWVRSKRSRLLHSDYMNMTPRRPGPTRKHYQPYAPPRDFAAYRSKKVAKKPTNKAPHPKQEPQEINFPDDLPGSNTAAPVQETLHGCQPVTQEDGKESRISVQERQ,
,187 fold,,MOV19.CD28 CoStAR (CTP343) (CAR) QVQLQQSGAELVKPGASVKISCKASGYSFTGYFMNWVKQSHGKSLEWIGRIHPYDGDTFYNQNFKDKATLTVDKSSNTAHMELLSLTSEDFAVYYCTRYDGSRAMDYWGQGTTVTVSSGGGGSGGGGSGGGGSDIELTQSPASLAVSLGQRAIISCKASQSVSFAGTSLMHWYHQKPGQQPKLLIYRASNLEAGVPTRFSGSGSKTDFTLNIHPVEEEDAATYYCQQSREYPYTFGGGTKLEIKAAAGSGG[about 150 residues not shown]FWVLVVVGGVLACYSLLVTVAFIIFWVRSKRSRLLHSDYMNMTPRRPGPTRKHYQPYAPPRDFAAYRS,
29 ng/mL,,10 fold,MFE23.CD28.CD40 CoStAR (CTP194; OSM_MFE23_spCD28_CD28_CD40) (CAR) QVKLQQSGAELVRSGTSVKLSCTASGFNIKDSYMHWLRQGPEQGLEWIGWIDPENGDTEYAPKFQGKATFTTDTSSNTAYLQLSSLTSEDTAVYYCNEGTPTGPYYFDYWGQGTTVTVSSGGGGSGGGGSGGGGSENVLTQSPAIMSASPGEKVTITCSASSSVSYMHWFQQKPGTSPKLWIYSTSNLASGVPARFSGSGSGTSYSLTISRMEAEDAATYYCQQRSSYPLTFGAGTKLELKRAAAGSGG[about 150 residues not shown]FWVLVVVGGVLACYSLLVTVAFIIFWVRSKRSRLLHSDYMNMTPRRPGPTRKHYQPYAPPRDFAAYRSKKVAKKPTNKAPHPKQEPQEINFPDDLPGSNTAAPVQETLHGCQPVTQEDGKESRISVQERQ,> 60 fold
